Laboratory results published in the supplement of paper PMC3334620.
Whole data set: some 33,000 sequences, median “E-score (-0.5 to 0.5)” near -0.011, cut for the highest 2% near 0.28. The list shows a part of the results.

molecular target: T1, Gcr1 (UniProt P07261); experiment: PBM E-score (8-mer binding enrichment) (E-score (-0.5 to 0.5)); higher = stronger / more preferred TF binding; most listed sequences are background and not binding sites; conditions: protein concentration: 100 nM; construct: GST-full length
T1 sequence: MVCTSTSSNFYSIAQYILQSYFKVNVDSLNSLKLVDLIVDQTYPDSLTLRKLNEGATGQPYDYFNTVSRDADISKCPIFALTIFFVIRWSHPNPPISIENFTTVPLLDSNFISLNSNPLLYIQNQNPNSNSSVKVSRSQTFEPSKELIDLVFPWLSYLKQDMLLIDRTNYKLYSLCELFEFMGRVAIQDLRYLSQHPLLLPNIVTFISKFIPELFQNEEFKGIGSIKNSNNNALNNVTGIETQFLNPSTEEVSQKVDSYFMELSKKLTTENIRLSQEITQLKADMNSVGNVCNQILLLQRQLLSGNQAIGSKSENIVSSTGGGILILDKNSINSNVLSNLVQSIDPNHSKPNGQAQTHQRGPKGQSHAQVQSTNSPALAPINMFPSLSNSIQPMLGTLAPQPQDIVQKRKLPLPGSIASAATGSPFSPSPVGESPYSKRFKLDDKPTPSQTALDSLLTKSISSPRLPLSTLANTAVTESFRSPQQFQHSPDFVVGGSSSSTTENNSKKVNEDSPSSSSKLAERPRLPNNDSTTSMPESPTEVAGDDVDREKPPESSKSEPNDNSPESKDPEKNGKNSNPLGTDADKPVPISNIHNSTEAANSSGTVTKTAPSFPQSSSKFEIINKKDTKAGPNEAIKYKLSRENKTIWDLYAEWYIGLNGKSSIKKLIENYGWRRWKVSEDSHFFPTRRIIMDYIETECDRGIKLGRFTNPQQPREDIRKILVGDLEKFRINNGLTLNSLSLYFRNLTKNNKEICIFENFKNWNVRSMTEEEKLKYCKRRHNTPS
In short: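 Universal all-10-mer Agilent arrays, double-stranded by primer extension on fresh or once-stripped slides, were probed with about 100-200 nM GST-tagged yeast transcription factors made by PURExpress. Fluorescent anti-GST detected bound protein, and masliner normalised the scans. E-scores from the Universal PBM Analysis Suite were given to each ungapped eight-base word pooled with its reverse complement.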

Sequence	PBM E-score
AGCGAGAG	-0.17
ATAGACGG	0.0138
CTGACCAG	-0.179
GAAACATC	-0.0203
TCGCAGCA	-0.00799
CCAGATTC	0.326
CACGCCCG	-0.266
ATGTGGAG	0.125
GAATGCCC	-0.0749
ACCTAATC	0.182
AAAGATAT	0.0731
CATAAGGC	-0.141
ATCATTTA	0.0746
GGAAGCAA	-0.107
GACACGGC	-0.105
ATTGCGCG	0.079
CATACAAA	0.195
AACGAGAC	-0.116
AAAATTAG	0.235
AGGTGCTG	0.189
AAACCCTG	0.0111
CCCCAGCG	-0.0838
CACTCGGG	-0.0875
TACCCCAA	0.113
CGAACGTC	-0.0611

Sequence	PBM E-score
AAAGGGTT	-0.0414
AAGTTTAA	0.0946
GACCTGCA	-0.149
ACATACAA	0.0298
CTCACGTA	-0.116
AATACAGT	-0.0143
GTCCTTCA	0.0722
CTCCCAAG	0.0273
ATTAGCCC	-0.106
ATGCCTGA	-0.00644
TCGCATAA	0.0626
GTGATACA	-0.127
AGATTGCC	-0.0983
CGACAATA	0.0972
CATCCGTC	-0.0225
TCCGCGGA	-0.211
TTACATAA	-0.115
CACCCTTC	0.153
CAACAAAA	0.0565
GACTTAGA	-0.143
ACATTGAG	-0.116
CTCCGGAG	0.0113
ACGGTCAG	-0.324
ACTCTATG	-0.241
TGAGGCAA	0.0484

Sequence	PBM E-score
CCCGTAAC	0.166
AGGAAACG	-0.12
GGTGAGAA	-0.128
CACTTGCA	0.0925
CAAGGCGA	-0.122
ACTCGATC	-0.211
ACTGTGAA	0.0711
ATGCTATC	0.00719
CTAAGTGA	-0.0333
CAGTTACG	0.0925
TCCAGAAA	0.304
CTCCCGCC	-0.0803
ACGTTCTC	-0.172
AGCAGAGG	-0.0912
ATCTGAGG	0.00628
CGACCCAA	0.0032
GAATTGTC	-0.0452
ACTCTTGC	-0.123
AGAGTAGG	-0.119
ATACCCGA	0.0208
GGGGAACA	-0.0897
CGCTTCAC	-0.0614
AGCAGTAA	-0.0937
GCATACGC	-0.109
AGGGTCCA	0.125

Sequence	PBM E-score
AGTCAAAT	-0.0263
ATGATAGG	-0.0167
AACCCTCG	-0.238
CCTCGCAA	-0.128
GCGCGCCA	0.0132
ACATCTAA	0.00203
TTATTCAA	0.0579
AGGGGCGA	-0.0394
GTGGTTTA	-0.0987
CAGAGCGA	-0.106
GAGTGAAC	-0.0688
TATCGCAA	0.0082
CAGAAGCC	0.306
CGCCGCGC	0.137
AGGGACGG	-0.2
CACTATAC	-0.0375
GGAGACAC	0.0498
AATGTGTA	-0.0742
CGAGACAA	-0.137
CCATTCAA	-0.125
AGCTAATG	0.0122
ATCGTAAT	0.0725
ATACCTGC	0.115
CGCTACAC	-0.00936
ACTTAACA	0.0911

Sequence	PBM E-score
AGCTCACG	-0.14
ACAAAGCA	0.0449
CAAGAACG	-0.141
ATGGTTGC	0.274
ATGACGTA	-0.0777
ATCAAATA	0.037
ATGTTTTC	0.00559
GATGTGCA	-0.128
AGGAACAG	-0.0502
CTACAGAC	-0.0198
ATTCTAGG	0.167
GCAGCGAA	-0.0362
CATTGGCG	-0.226
ATAGTGAC	-0.055
CCTTGTTC	0.0321
CACCCAGA	0.198
ATCCTAAT	0.28
ACCCAGCA	0.116
ATCATCTA	-0.0438
GCCGACGC	0.102
ACTCTCTA	-0.252
AATGTCAG	-0.127
CAAAGATC	0.0527
ACTCTCCT	-0.21
AGCCAGCG	-0.203

Sequence	PBM E-score
CGGAGTGA	-0.0268
CCTAGGCC	-0.263
CAAAGGGG	-0.03
AGATTCAG	0.117
AGTTTACC	-0.0175
ACAGCATA	0.0467
GACGACAC	-0.0951
AACAGCCG	-0.015
CAGATGAA	0.14
ACCGGCAA	-0.0101
CTTTATCA	-0.0363
GCAGCGCA	0.0604
ATACAAGG	0.0694
GCATCTCA	0.139
CAAACAAG	0.207
CACAACTC	0.0532
ATGCATCA	-0.0769
AAACGCCC	-0.168
ACAACACC	-0.0379
AATCGGGT	0.0963
CATTAAAG	-0.0176
CGCTAGAC	-0.14
CGCCGGCG	0.232
CTTAAAAC	0.152
CTGCGGGC	0.00331

Sequence	PBM E-score
CTGCGGCC	-0.118
GTTCGCAA	0.00147
ACTATAGT	0.168
AATATCAG	0.0824
AAAGTACC	-0.0184
TATAGAAA	-0.0715
AGACCGTC	-0.144
CCTCCGCG	0.0159
ACATAGGC	-0.0531
ATAGCCAC	-0.037
CCGATGTA	-0.0867
CTTCTACC	-0.00986
CAGTCGTA	-0.213
GTCTCGCA	-0.132
GAAGTACC	0.0406
GGCCCCCC	0.0498
GAAATAGA	-0.082
GATGAAAC	-0.0609
CGGGCGCA	0.0492
TAATTACA	0.107
AAAGTTTA	0.176
ATCGAAAA	-0.0428
